Reference: paper PMC12136788
Some of the results follow.

T1: UNK ZnF1-3 (human, UniProt Q9C0B0 31-174)
T1 sequence: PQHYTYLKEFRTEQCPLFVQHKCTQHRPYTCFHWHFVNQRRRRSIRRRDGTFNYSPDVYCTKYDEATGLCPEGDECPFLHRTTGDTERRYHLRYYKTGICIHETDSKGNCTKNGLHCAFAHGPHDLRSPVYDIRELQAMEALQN

B1: chr11:51926749:51926750:+_ENSMUSG00000020349_ENSMUST00000020608|perfect_dup|motif|central (ssRNA)
RNA: GGGAGUUCUACAGUCCGACGAUCGUCAACAUAAUCUCCCAUAAACAAGUAAUUUGUAUCUGGUGAUUUGCCACCAAUUCGGAACAGUUCCAUGAGAUCAUGAAAUUGCCCAUGCACAUCUCCACAGACAGUAACUGGACAUCGCAACAGAGGAUUGAGCAUCA
B2: 129323141_129323261_3732_3pUTR_ENSMUSG00000003731_ENSMUST00000102590|mouse|control|control (ssRNA)
RNA: GGGAGUUCUACAGUCCGACGAUCUAACUGUCACUUGAGAGGUUCAGGGGUCUACUCUUCAGAUAAGGACGAUGAUGGCUUCAUAGAGGACUUUUCUUUGAACUAGGAGCAGUUUCAGUCAGGUUAAAAACAAAAGGGCCAGCACAACAGAGGAUUGAGCAUCA
B3: chr14:78183846:78183847:+_ENSG00000119705_ENST00000557342|hu_hu|hu_hu_hu_mus_False|88_98 (ssRNA)
RNA: GGGAGUUCUACAGUCCGACGAUCUCUCAGAAAUCUUUCUUUCUUUUCAUCAUCAGAUCCGUGCAAAGCCUUUGCUCUUUGAGCUUGAACGUGGAUCUAUGGGAGGGAAAGCACUGUCAGAAAAGGUAAUUUUUUUUUUAAAGACAACAGAGGAUUGAGCAUCA
B4: chr8:104447970:104447971:+_ENSG00000164934_ENST00000297579|hu_hu|hu_hu_hu_mus_False|48_58 (ssRNA)
RNA: GGGAGUUCUACAGUCCGACGAUCAUACACUUCCCUGCUUCGGCUCUUGUCCACAGGAAAGAUUCUAAUAGACUUAUCGAAACUAGCAGACACAAACUCCUUCCCAGUGGGAGAGUAGUCCACAUCAAGUACUGCAGACACGUGCAACAGAGGAUUGAGCAUCA
B5: chr2:74706439:74706440:+_ENSMUSG00000027099_ENSMUST00000155844|mus_mus|FALSE|FALSE (ssRNA)
RNA: GGGAGUUCUACAGUCCGACGAUCGUCUGAUCUCAAGCCUUAUCCUCUUAUACCUCUGCAGUCAGCAGCAUAUUGUUGACUAAUUCCAUGUAGGCUUUCAUUUCUGCUUUUUGGACUUCAUCCAACCCAUCACUAAGAGAAUGGCAACAGAGGAUUGAGCAUCA
B6: chr20:35282059:35282060:-_ENSG00000101079_ENST00000349004|hu_hu|FALSE|FALSE (ssRNA)
RNA: GGGAGUUCUACAGUCCGACGAUCGCUGGUGACAGACCGGCUGAAGGGACUUUCUCCAGAGCCGAGGCUACUCGAGGUUGAGUGGGUUCGUGAUCGGGCGAGCCGAGUCAUGCUGGCAGAUGGUAUGUAGCCCAUUCCCUGCAACAACAGAGGAUUGAGCAUCA
B7: chr2:78753848:78753849:+_ENSMUSG00000027011_ENSMUST00000028398|mus_mus|motif|central (ssRNA)
RNA: GGGAGUUCUACAGUCCGACGAUCGUUAUCUCCUUUAGGCCCAGCACUGCAGUUAGGAGGAGGAUCAAGGGUUAUCUCUGCGGGCUCCUUCUGAAUUCUUUUAGCACUAGUGGAUAACUUAGCAGUCGUUUUGCUAGAGAGUUUCAACAGAGGAUUGAGCAUCA
B8: chr6:114281168:114281169:-_ENSG00000196591_ENST00000368632|hu_hu|hu_hu_hu_mus_True|1_38 (ssRNA)
RNA: GGGAGUUCUACAGUCCGACGAUCUUCCAUUUUUCGGUAUAAACCAUAAUUUAGCAGCAAGUUAUGAGUCAUCCGGAUUCUAUGAGGCUUCAUGGGAUGACCCUGUCCAUAAUAAUAAUUGCCAAUAUCACCAUCAUACUAGAACAACAGAGGAUUGAGCAUCA
B9: chr17:74699132:74699133:-_ENSMUSG00000024067_ENSMUST00000112571|perfect_dup|FALSE|FALSE (ssRNA)
RNA: GGGAGUUCUACAGUCCGACGAUCCCCAUUAAGUCAGUUUCGAUCUUCAAACUGUGCCUUGUUUUUUAAAAGAUAAGAUGCUAGAAAUUCAAUGGGAUUUGGUGGUCUUUCCUUUGCAAGCACAGCAAGUCCCUGUAAUAAGAUCAACAGAGGAUUGAGCAUCA
B10: chr12:48362563:48362564:+_ENSG00000134291_ENST00000256686|hu_hu|hu_hu_hu_mus_False|38_68 (ssRNA)
RNA: GGGAGUUCUACAGUCCGACGAUCUCCGUCAAGCCCUUCGAUAGACCCUUGCGGGGGAAACUGUAAUAAUUCUAACUGGGGAAGGAAAAGAAACGCCAACACACUUUCAAAAAGCGGGGGUGGGGUGAGGCGGGAGGGGGAGGUCAACAGAGGAUUGAGCAUCA
B11: chr1:220276048:220276049:+_ENSG00000067704_ENST00000302637|hu_hu|hu_hu_hu_mus_True|1_48 (ssRNA)
RNA: GGGAGUUCUACAGUCCGACGAUCGCAAAUUGCCUGGUUGGCGGGAAUUGUCCAAGGCUGGGUGGUCCAAACUAAAACGCUAACAGGAGAUGAACCAUCUGUAAGAGACUCCAACUUCGGAGGAGGUCUCAGGAGGGGAAAUUUCAACAGAGGAUUGAGCAUCA
B12: chr11:100643421:100643422:-_ENSMUSG00000020919_ENSMUST00000004143|mus_mus|FALSE|FALSE (ssRNA)
RNA: GGGAGUUCUACAGUCCGACGAUCACAGGAGGGGGGAAAUUUGAUGUCAAAUUAGGGUGCAAAUGGGAAAAACAUAAAAAAAGACCUGAUUUAGAAACAAAAAACACCACCGGACGUUUGCAGGAAGCCAUUAUCAACACGCUUCAACAGAGGAUUGAGCAUCA
B13: chr4:94236435:94236436:-_ENSMUSG00000028577_ENSMUST00000107107|mus_mus|motif|central (ssRNA)
RNA: GGGAGUUCUACAGUCCGACGAUCCUGGGACAUCAUGAGCUUUUGUCCUGCCUGACUAACAAAGCAAUUGCAAAAAGUCCGGAGAGCAAGCAGCUGGUUUGCUGGCUUUCCUUUGGGGUUCAGAAGGUUGAUAAGAUGGCUGCUCAACAGAGGAUUGAGCAUCA
B14: 25675576_25677131_665_3pUTR_ENSMUSG00000036333_ENSMUST00000066652|mouse|control|control (ssRNA)
RNA: GGGAGUUCUACAGUCCGACGAUCCUUCACACAUUCCAAAUGACCCUUUCGGGCAGCCCACACCAAAGGAGUUGUUCCAUACUUAUCAGAGCAAUUGACUUUCGCACCAUUCUGCAGCAGAAGAUGCACUAUGUCGGCGUGGCCCAACAGAGGAUUGAGCAUCA
B15: chr6:86333760:86333761:-_ENSG00000135316_ENST00000355238|hu_mus|hu_hu_hu_mus_True|28_78 (ssRNA)
RNA: GGGAGUUCUACAGUCCGACGAUCUUCCUCAAGAAUCUGCUCCUUGGUUUUACUCUUAGGAAUAGAGCCCACAAAAAGCCUAUUGUUGGCAACUGAGAUGCAGACACCAAUAUGUUUCCCGGAACGAAUUUCAUGAUUAUUAUACAACAGAGGAUUGAGCAUCA
B16: chrX:100910778:100910779:-_ENSG00000184867_ENST00000356824|hu_hu|motif|central (ssRNA)
RNA: GGGAGUUCUACAGUCCGACGAUCAACACACACUCCAGAUGUAGUGCAUAAGUAAAAAAGGGAACCUUUAUUGAAUUCUCGGUAGUUAAACACUUCUGCUCUGAGAUUGUCAUAGAUAAUCUCAAAUAGAGUAAGGGCAUUAAUCAACAGAGGAUUGAGCAUCA
B17: chr2:48026839:48026840:+_ENSG00000116062_ENST00000540021|hu_hu|hu_hu_hu_mus_False|18_38 (ssRNA)
RNA: GGGAGUUCUACAGUCCGACGAUCAUAGUGAGCCACUAGCGUCCUAAAUCUGGAACAGUGGCGGUCAUCCGAAAACUGGCCGAUGAAAAACUUGCCCAGUGAAGUAUCCACAAAGCACACACCAUAUACACGAGUGUGACCAGACAACAGAGGAUUGAGCAUCA
B18: chr8:117878989:117878990:-_ENSG00000164754_ENST00000297338|hu_hu|hu_hu_hu_mus_True|48_58 (ssRNA)
RNA: GGGAGUUCUACAGUCCGACGAUCCCAGAGGCCCUCGUUUACUGAGGACAAAAUGUGCGUAGAACAUUUUUCUUAUUGGCUAUGAAAACAGAAGAAACCUGGAUCUCGGCGGGGAGCCGGGAGGGGUGGGUGGCCCGGGGAGGGCAACAGAGGAUUGAGCAUCA
B19: chr1:87369078:87369079:-_ENSG00000183291_ENST00000370554|hu_hu|FALSE|FALSE (ssRNA)
RNA: GGGAGUUCUACAGUCCGACGAUCCAGGUUGAACUGUCCGAGAAGAUCACAAGAGCUGCAAAGCAAGUUGCUAGAAAAGCCUAACUCUCUGCAUGCCUCCGAUGAAAACUCUGCCCCAAAAGCAGACACCGCUUGAAGCACAGUCAACAGAGGAUUGAGCAUCA
B20: chr19:29096225:29096226:-_ENSMUSG00000024782_ENSMUST00000025696|mus_hu|FALSE|FALSE (ssRNA)
RNA: GGGAGUUCUACAGUCCGACGAUCAGUACAUCAGCAACCAUCCUUUAGAUUCCAAUUUUUAAAUGGCUGCUCAGACGACACCAAUAGAGUUCUUUCUCCUUAAAAUAUGGUGGCAGUGAAUGCUAACAGGUAUCAAUUUCUUUGCAACAGAGGAUUGAGCAUCA
B21: 131237850_131237970_937_3pUTR_ENSMUSG00000025809_ENSMUST00000090006|mouse|control|control (ssRNA)
RNA: GGGAGUUCUACAGUCCGACGAUCACUCUCCUCUGUCAGUAAGACUAAGCACAUUUUUGUAGCUAAAUGGGCUGGUGCAGUUUUGUUCACUUGUACAAGGAUUUCUUAGCUUUGCUGGGGUUGUGCUAAUAUACGGCAUCACAGCAACAGAGGAUUGAGCAUCA
B22: chr7:65705844:65705845:+_ENSG00000169902_ENST00000304842|hu_mus|hu_hu_hu_mus_False|28_88 (ssRNA)
RNA: GGGAGUUCUACAGUCCGACGAUCAAACGGAUCUUUGUUACAUAAAUAAGGGGCUGGCUCCCCAUGUUUAACAAUGACCUCCAGAAGGAAGGCUUGCAUGGCAGAAUCCAGCACUUCAUCUGUGACACCCGCCUCAUCCAAGCGCAACAGAGGAUUGAGCAUCA

Molecular target: T1, UNK ZnF1-3
Assay: nsRBNS (natural sequence RNA bind-n-seq); RBNS binding buffer (assumed for nsRBNS): 25 mM Tris pH 7.5, 150 mM KCl, 3 mM MgCl2, 0.01% Triton X-100, 500 ug/ml BSA, 20 U/ml SUPERase-In, 4 C; UNK is unkempt and MSI1 is Musashi-1; names of the RNAs are library labels; protein concentration not given here; high values mean tight binding

Row | Binder | binding signal
1 | B1 | 1.08 enrichment R
2 | B2 | 1.69 enrichment R
3 | B3 | 0.992 enrichment R
4 | B4 | 0.779 enrichment R
5 | B5 | 0.657 enrichment R
6 | B6 | 0.984 enrichment R
7 | B7 | 0.936 enrichment R
8 | B8 | 0.825 enrichment R
9 | B9 | 0.99 enrichment R
10 | B10 | 1.76 enrichment R
11 | B11 | 1.49 enrichment R
12 | B12 | 3.12 enrichment R
13 | B13 | 1.45 enrichment R
14 | B14 | 1.22 enrichment R
15 | B15 | 1.17 enrichment R
16 | B16 | 0.732 enrichment R
17 | B17 | 1.18 enrichment R
18 | B18 | 1.86 enrichment R
19 | B19 | 0.799 enrichment R
20 | B20 | 1.35 enrichment R
21 | B21 | 1.16 enrichment R
22 | B22 | 0.518 enrichment R
